Laboratory results from the supplement of paper PMC3334620.
Whole data set: some 33,000 sequences, median “E-score (-0.5 to 0.5)” near -0.035, cut for the highest 2% near 0.34. The list shows a part of the results.

What follows are sequences tested against T1, Mot3 (UniProt P54785) (assay: PBM E-score (8-mer binding enrichment) (E-score (-0.5 to 0.5)); higher = stronger / more preferred TF binding; most listed sequences are background and not binding sites). Settings: protein concentration: 200 nM; construct: GST-full length.
T1 sequence: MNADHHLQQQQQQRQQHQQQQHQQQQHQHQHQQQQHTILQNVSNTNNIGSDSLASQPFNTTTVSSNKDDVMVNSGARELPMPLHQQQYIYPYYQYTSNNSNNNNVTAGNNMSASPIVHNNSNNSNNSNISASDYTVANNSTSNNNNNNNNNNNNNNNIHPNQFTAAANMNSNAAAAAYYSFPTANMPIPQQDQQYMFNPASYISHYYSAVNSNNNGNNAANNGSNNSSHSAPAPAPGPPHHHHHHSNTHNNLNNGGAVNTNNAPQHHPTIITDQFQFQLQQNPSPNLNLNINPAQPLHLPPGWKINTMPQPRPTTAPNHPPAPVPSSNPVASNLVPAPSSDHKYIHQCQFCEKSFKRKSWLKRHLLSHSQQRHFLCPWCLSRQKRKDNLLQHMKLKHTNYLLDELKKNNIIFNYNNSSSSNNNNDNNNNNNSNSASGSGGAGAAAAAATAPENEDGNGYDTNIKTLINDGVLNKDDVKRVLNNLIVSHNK
Summary of the method: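 GST-tagged yeast TFs (full-length or DNA-binding domain) were made by PURExpress in vitro transcription/translation and applied at about 100-200 nM to universal all-10-mer Agilent arrays. The arrays were made double-stranded by primer extension, on fresh or once-stripped slides. Bound protein was detected with fluorescent anti-GST, and scans were normalised with masliner. Each ungapped eight-base word, pooled with its reverse complement, received an E-score (modified Wilcoxon-Mann-Whitney statistic) from the Universal PBM Analysis Suite.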

| Sequence | PBM E-score |
| --- | --- |
| AACAGACT | 0.146 |
| AGCTAGGA | -0.0538 |
| AAGGGGAA | -0.0624 |
| GCACCCAC | 0.153 |
| AATCTGGG | -0.227 |
| ATAAGCGG | -0.234 |
| CCCGTACC | -0.0401 |
| ACTAGGAT | 0.0413 |
| ACAGGGGC | 0.12 |
| AAGACAGT | -0.0989 |
| AGTAGAAG | 0.0882 |
| CCCCGAAC | -0.0861 |
| CAGTGGTA | -0.0277 |
| CCCCTGAC | -0.12 |
| GATTCTCC | -0.355 |
| ATGACCGG | -0.243 |
| TATGTGGA | 0.0211 |
| AGTATTTC | -0.0903 |
| TAGGAGAA | 0.135 |
| AAATCGGT | -0.0942 |
| ACTCGAGC | 0.0195 |
| CCCTTCAA | 0.151 |

| Sequence | PBM E-score |
| --- | --- |
| AAACTCGT | 0.0121 |
| GTGGCCGA | -0.285 |
| CAGTTAGC | -0.274 |
| AAACTGAG | -0.289 |
| AACGATCA | 0.0691 |
| CACTCAGA | -0.0203 |
| GTGGATTA | -0.143 |
| AGCAGGAC | -0.096 |
| CACCTTCA | 0.152 |
| ACCCGTGA | -0.212 |
| AGCCGCTG | -0.311 |
| GGGACCCC | -0.315 |
| AAGGAGGT | -0.143 |
| ACCACACC | -0.16 |
| CTGCTAAC | -0.108 |
| ATATGCGG | -0.167 |
| AGCCGCTC | -0.196 |
| CTCCTCGC | -0.269 |
| AGGTCGGC | -0.342 |
| AGATCCCT | -0.117 |
| AACTCTAG | 0.00906 |
| AGCGCCAT | -0.236 |

| Sequence | PBM E-score |
| --- | --- |
| ACGGAGTG | -0.268 |
| CAAGTACC | 0.127 |
| AATGACGG | -0.203 |
| CACAGGGG | 0.118 |
| CACTGTGC | 0.0897 |
| AAAATGAG | 0.0191 |
| GGGGAAGA | -0.264 |
| ATCGCTAG | -0.0658 |
| TGCGAACA | 0.175 |
| AGTTGCCA | -0.181 |
| CTTCCCTA | -0.206 |
| ACTCCAAA | -0.149 |
| ACCATCCC | -0.231 |
| CTGGTAAC | -0.0508 |
| CCTGTCGA | 0.342 |
| CAGTCGTA | 0.0388 |
| GAAGTACC | 0.00084 |
| GTCTCGCA | -0.238 |
| GAAATAGA | 0.0538 |
| GGCCCCCC | -0.414 |
| CTGCGGGC | -0.066 |
| CTGCGGCC | -0.267 |

| Sequence | PBM E-score |
| --- | --- |
| GTTCGCAA | 0.124 |
| AATATCAG | -0.0765 |
| ACTATAGT | 0.134 |
| TATAGAAA | -0.00343 |
| AAAGTACC | 0.119 |
| CCTCCGCG | -0.0559 |
| AGACCGTC | -0.253 |
| ACATAGGC | 0.373 |
| CTTCTACC | 0.0021 |
| CCGATGTA | 0.119 |
| ATAGCCAC | -0.179 |
| CATTAAAG | 0.191 |
| CGCCGGCG | -0.00049 |
| CGCTAGAC | -0.238 |
| CTTAAAAC | 0.189 |
| ACAACACC | 0.153 |
| AATCGGGT | -0.0444 |
| ATTAGCTG | -0.0217 |
| AAACATGC | 0.288 |
| AGTAACGC | 0.0943 |
| GGTTTACA | 0.333 |
| AAGGCCTG | -0.15 |

| Sequence | PBM E-score |
| --- | --- |
| AGCGAATG | -0.143 |
| ACCATACG | 0.0609 |
| AGCGGGGC | -0.189 |
| CCATAAGA | -0.274 |
| GAACTAGC | -0.151 |
| CTCATGAG | -0.0531 |
| ATCCAAAA | -0.0239 |
| GCTTCAGA | -0.0764 |
| ATCGAAAA | 0.00249 |
| CAGAAACG | 0.0904 |
| GCGTCACC | -0.0845 |
| CTGAAATA | 0.0144 |
| AACCTTCC | -0.0767 |
| GATGAAAC | 0.0451 |
| CGGGCGCA | -0.165 |
| TAATTACA | 0.372 |
| AAAGTTTA | 0.159 |
| ATACTACA | 0.246 |
| AACTTAAA | 0.212 |
| CACCAGCG | -0.0493 |
| ATTGGCCC | -0.299 |
